# Source: the supplement of paper PMC9446081
# Hit rate of the full screen: of about 39,000 compounds, about 220 (0.56%) showed activity. This is one part of the list.
# Test system: Escherichia coli K-12 BW25113
# Assay: relative growth (OD600 normalised to plate interquartile mean) (fraction); higher = less growth inhibition, active = 0.2 or less
# Conditions: 50 µM; LB; incubation time: overnight (16-24 h)
# 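Further: static incubation at 37 °C against the wild-type strain, values averaged over two biological replicates.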
row,SMILES,relative growth
1,C[C@H](CO)N1C[C@H](C)[C@H](CN(C)S(=O)(=O)c2cccs2)Oc2ccc(NS(=O)(=O)c3ccc(F)cc3)cc2CC1=O,inactive: 1.02
2,Cc1ccc(S[C@]2(C(=O)NCc3ccccc3)CC(=O)N(C3Cc4ccccc4C3)[C@@H]2c2ccc(CO)cc2I)cc1,inactive: 0.997
3,C[C@@H]1CCCCO[C@H](CN(C)S(=O)(=O)c2cccs2)[C@H](C)CN([C@H](C)CO)C(=O)c2cc(NS(C)(=O)=O)ccc2O1,inactive: 0.986
4,C[C@@H]1CN([C@@H](C)CO)C(=O)c2cc(C#CCN(C)C)cnc2O[C@@H]1CN(C)S(=O)(=O)c1cn(C)cn1,inactive: 0.998
5,C[C@H]1CN([C@@H](C)CO)C(=O)CCCn2nncc2CO[C@@H]1CN(C)S(=O)(=O)c1ccc(-c2ccccc2)cc1,inactive: 1
6,C[C@H](CO)N1C[C@H](C)[C@H](CN(C)S(=O)(=O)c2ccccc2)Oc2ccc(NS(=O)(=O)c3ccccc3)cc2C1=O,inactive: 0.972
7,C[C@]12C(=O)N(CCC(=O)O)C(=O)[C@H]1[C@@H]1C=C[C@@H]2C1,inactive: 0.975
8,COc1ccc2c3c(n(c2c1)C)[C@@H](CO)N(C[C@]13CCN(CC1)C(=O)Nc1c(noc1C)C)C(=O)Nc1ccc(cc1)F,inactive: 0.981
9,C/C=C/c1ccc([C@H]2[C@H](CO)N(S(=O)(=O)Cc3ccccc3)C23CN(C(=O)C2CCOCC2)C3)cc1,inactive: 1.01
10,C[C@@H]1CCCCO[C@H](CN(C)C(=O)CCCN(C)C)[C@@H](C)CN([C@@H](C)CO)C(=O)c2cc(NC(=O)Nc3ccc(F)cc3)ccc2O1,inactive: 1.01
11,C[C@H](CO)N1C[C@H](C)[C@H](CN(C)Cc2ccc(C(F)(F)F)cc2)OCCCC[C@H](C)Oc2ccc(NS(=O)(=O)c3cccs3)cc2C1=O,inactive: 0.988
12,COc1ccc(NC(=O)Nc2ccc3c(c2)C(=O)N([C@H](C)CO)C[C@H](C)[C@H](CN(C)C(=O)Nc2cccc4ccccc24)OCCCC[C@H](C)O3)cc1,inactive: 1.01
13,NC(=O)NCc1ccc2c(c1)OCO2,inactive: 0.995
14,C[C@@H]1CN([C@H](C)CO)C(=O)c2cc(C#CCN(C)C)cnc2O[C@H]1CN(C)Cc1ccc2c(c1)OCO2,inactive: 1.03
15,COCC(=O)N1C[C@H](C)[C@@H](OC)CN(C)C(=O)c2ccc(NC(=O)c3cc(C)on3)cc2OC[C@H]1C,inactive: 1.02
16,C[C@@H]1CN([C@H](C)CO)C(=O)c2c(c3ccccc3n2C)-c2ccccc2CO[C@H]1CN(C)Cc1cccc(F)c1,inactive: 0.978
17,CCCCCCCCCCCCCCCCOCCCOP(=O)(O)CO[C@H](CO)Cn1ccc(N)nc1=O,inactive: 0.983
18,CC[C@@H](N)CC12CC3CC(CC(C3)C1)C2,inactive: 0.987
19,C[C@@H]1CCCCO[C@H](CN(C)S(C)(=O)=O)[C@@H](C)CN([C@@H](C)CO)C(=O)c2cc(NS(=O)(=O)c3cn(C)cn3)ccc2O1,inactive: 0.952
20,CC(C)(C)OC(=O)C[C@H]1CC=CC[C@@H](CC(=O)N[C@H](CO)Cc2ccccc2)C(=O)N[C@@H](C(C)(C)C)COC1=O,inactive: 0.981
21,C[C@H](CO)N1C[C@H](C)[C@@H](CN(C)Cc2ccc(C(=O)O)cc2)Oc2ccc(NS(=O)(=O)c3ccccc3)cc2CC1=O,inactive: 1

row,SMILES,relative growth
1,CCCN(C)C[C@@H]1OCCCC[C@@H](C)Oc2ccc(NC(=O)Nc3ccc(F)cc3)cc2C(=O)N([C@H](C)CO)C[C@@H]1C,inactive: 0.999
2,COc1ccc(S(=O)(=O)N(C)C[C@H]2Oc3ccc(NC(=O)NC(C)C)cc3C(=O)N([C@@H](C)CO)C[C@@H]2C)cc1,inactive: 1.01
3,NC(=NC(=O)N1CCOCC1)c1ccccc1,inactive: 0.992
4,C[C@H]1CN([C@@H](C)CO)C(=O)c2cccc(NC(=O)NC3CCCCC3)c2O[C@@H]1CN(C)C(=O)Nc1cccc2ccccc12,inactive: 0.914
5,O=C1CCc2c(ccc3ccccc23)O1,inactive: 0.953
6,CN1CCN(C(=O)C[C@@H]2C=C[C@@H](NC(=O)c3ccc4c(c3)OCO4)[C@@H](CO)O2)CC1,inactive: 1
7,C[C@H]1CN([C@@H](C)CO)C(=O)Cc2cc(NC(=O)CCC(F)(F)F)ccc2O[C@@H]1CN(C)Cc1ccc(Oc2ccccc2)cc1,inactive: 0.986
8,CNC[C@@H]1Oc2cc(C#CCN(C)C)ccc2S(=O)(=O)N([C@@H](C)CO)C[C@H]1C,inactive: 0.981
9,C[C@@H]1CN([C@H](C)CO)C(=O)c2c(c3ccccc3n2C)-c2ccccc2CO[C@H]1CN(C)S(=O)(=O)c1cn(C)cn1,inactive: 0.993
10,Cc1cccc(N2C[C@@H](N)CC2=O)c1,inactive: 1.01
11,C[C@@H]1CN([C@H](C)CO)C(=O)c2cc(NC(=O)Cn3cnnn3)ccc2O[C@H]1CN(C)S(=O)(=O)c1cccs1,inactive: 0.994
12,O=C(C[C@H]1CC[C@H]2[C@@H](COC[C@H](O)CN2S(=O)(=O)c2ccc(F)cc2)O1)NCc1ccncn1,inactive: 1
13,COCC#Cc1cnc2c(c1)C(=O)N([C@@H](C)CO)C[C@H](C)[C@H](CN(C)S(=O)(=O)c1ccccc1)O2,inactive: 1
14,CCc1ccc(CCOc2ccc(CC3SC(=O)NC3=O)cc2)nc1.Cl (stereo unspecified),inactive: 1.07
15,C[C@@H]1CN([C@@H](C)CO)C(=O)c2cc(C#CCN(C)C)cnc2O[C@@H]1CN(C)C(=O)Nc1cc(F)ccc1F,inactive: 0.989
16,Cn1c(=O)c2c(ncn2C)n(C)c1=O,inactive: 0.885
17,O=C(C[C@H]1CC[C@@H]2NC[C@H](O)COC[C@H]2O1)NCCN1CCCCC1,inactive: 0.982
18,O=C(O)[C@@H]1C[C@H](C(F)(F)F)CN1,inactive: 0.985
19,COc1ccccc1CNC(=O)C[C@@H]1CC[C@H]2[C@@H](COC[C@@H](O)CN2C(=O)Nc2ccc(Cl)cc2)O1,inactive: 0.953
20,C[C@H](CO)N1C[C@H](C)[C@@H](CN(C)Cc2ccc(Cl)c(Cl)c2)Oc2ccc(NC(=O)Nc3cccc4ccccc34)cc2C1=O,inactive: 1.02
21,O=C(C[C@@H]1C[C@@H]2c3cc(NC(=O)c4ccc5c(c4)OCO5)ccc3O[C@@H]2[C@@H](CO)O1)NCc1ccc(Oc2ccccc2)cc1,inactive: 1.02

row,SMILES,relative growth
1,COCCOC(=O)N1C(=O)[C@@]2(c3cc(C#CCC(C(=O)OC)C(=O)OC)ccc31)[C@H](c1ccc(O)cc1)N1[C@H](c3ccccc3)[C@H](c3ccccc3)OC(=O)[C@H]1[C@@H]2C(=O)N1CCc2cc(OC)c(OC)cc2C1,inactive: 0.99
2,Cn1c(=O)c2c(ncn2CCCCn2cnc3c2c(=O)n(C)c(=O)n3C)n(C)c1=O,inactive: 0.965
3,C[C@@H]1CN([C@H](C)CO)C(=O)c2cc(NC(=O)CCC(F)(F)F)ccc2O[C@@H](C)CCCCO[C@@H]1CN(C)Cc1ccncc1,inactive: 1.01
4,C[C@@H]1CN([C@H](C)CO)C(=O)c2cccc(NC(=O)C3CCCCC3)c2O[C@@H]1CN(C)Cc1ccc(C(F)(F)F)cc1,inactive: 0.884
5,C[C@@H]1NC(=O)[C@@]23C(=O)N[C@@H](Cc4ccccc4)[C@@H]2[C@H](C)[C@@]2(C)O[C@H]2[C@H]3/C=C/C/C=C\CNC(=O)[C@@H]2CCCN2C1=O,inactive: 1
6,C[C@@H]1CN([C@H](C)CO)C(=O)c2c(c3ccccc3n2C)-c2ccccc2CO[C@H]1CN(C)Cc1ccc(F)cc1,inactive: 0.993
7,C[C@H]1CN([C@@H](C)CO)C(=O)CCCn2cc(nn2)CO[C@H]1CN(C)C(=O)CCCN(C)C,inactive: 0.986
8,Cc1noc(C)c1NC(=O)Nc1ccc2c(c1)C(=O)N([C@H](C)CO)C[C@@H](C)[C@@H](CN(C)Cc1ccc(Cl)c(Cl)c1)O2,inactive: 1.03
9,C[C@H]1CN([C@@H](C)CO)C(=O)Cc2cc(NC(=O)Nc3cccc4ccccc34)ccc2O[C@H]1CN(C)C(=O)Nc1cccc2ccccc12,inactive: 1.01
10,C[C@@H]1CN([C@H](C)CO)C(=O)c2c(c3ccccc3n2C)-c2ccccc2CO[C@@H]1CN(C)C(=O)CCC(F)(F)F,inactive: 0.942
11,Cc1noc(C)c1S(=O)(=O)N(C)C[C@H]1Oc2ccc(NS(=O)(=O)c3cccs3)cc2CC(=O)N([C@@H](C)CO)C[C@@H]1C,inactive: 0.998
12,COc1cccc(-c2ccc3c(c2)O[C@H](CN(C)C(=O)C2CCC2)[C@H](C)CN([C@@H](C)CO)S3(=O)=O)c1,inactive: 1
13,C[C@@H]1CCCCO[C@H](CN(C)C(=O)CCC(F)(F)F)[C@H](C)CN([C@@H](C)CO)C(=O)c2cc(NC(=O)c3ccccc3)ccc2O1,inactive: 0.962
14,CCCN(C)C[C@H]1Oc2cc(C#Cc3ccc(OC)cc3)ccc2S(=O)(=O)N([C@@H](C)CO)C[C@H]1C,inactive: 1.01
15,C[C@H](CO)N1C[C@H](C)[C@H](CN(C)C)Oc2ccc(NC(=O)Cc3cn(C)c4ccccc34)cc2CC1=O,inactive: 0.984
16,C[C@@H]1CN([C@H](C)CO)C(=O)c2cc(NC(=O)Nc3ccc(F)cc3)ccc2O[C@@H](C)CCCCO[C@H]1CN(C)S(=O)(=O)c1ccccc1,inactive: 1
17,C[C@@H]1CN([C@@H](C)CO)C(=O)c2cc(NS(=O)(=O)c3ccccc3)ccc2O[C@H]1CN(C)S(=O)(=O)c1cccs1,inactive: 1.02
18,CS(=O)(=O)Nc1ccc2c(c1)[C@@H]1C[C@H](CC(=O)NCc3ccc(-c4ccccc4)cc3)O[C@H](CO)[C@@H]1O2,inactive: 0.969
19,C[C@H](CO)N1C[C@H](C)[C@@H](CN(C)S(=O)(=O)c2ccc(Cl)cc2)OCCCC[C@H](C)Oc2ccc(NC(=O)Nc3ccc(C(F)(F)F)cc3)cc2C1=O,inactive: 1.01
